According to article PMC12136788:
The list shows a part of the results.

B1: chr7:108149816:108149915:-|CDS_3pUTR|ENSG00000091129|msi1_unk|total|mutant (ssRNA)
RNA: GGGAGUUCUACAGUCCGACGAUCGUCAACGCCAUGAAUUCCUUUGUUUAAUUUUUAAGCUCUUUGCCAAUAUUCCAUUUCUCCCGAAUGUUUAUCCUAAGCACUUGUUUGUCAGCCCUCUCAUACUAUGAACAUAUGGGCCGACAACAGAGGAUUGAGCAUCA
B2: chrX:13662881:13662996:+|CDS|ENSG00000176896|unk|total|mutant (ssRNA)
RNA: GGGAGUUCUACAGUCCGACGAUCUCGAAUUCUCUGUCUUCCCAAGACGUUGCAAAACUCAGUGAAAUGAUUGUGCCUGAAAACCGAGCCAUUCAAUUGAAACCUAAGGAAGAGCAUUUUGGGGAUGGUGACCCUGAAUCCACUCAACAGAGGAUUGAGCAUCA
B3: chr6:36232219:36232320:+|3pUTR|ENSG00000096070|unk|total|mutant (ssRNA)
RNA: GGGAGUUCUACAGUCCGACGAUCGCCCGGGAAGGACAUGGUGUAUAUAAUUGUAAAAUACUGUUCUAAAUUAUUCAGGCCUACCGUUUCCAUUACUGGAGUCCUCCAUUGUGUGGCCACACAGUGUCGUUGAUUUAAAGGAGCCAACAGAGGAUUGAGCAUCA
B4: ENSG00000070961:be:win_2601|CDS|ENSG00000070961|bound_else_gene|NA|bound_elsewhere_windowed (ssRNA)
RNA: GGGAGUUCUACAGUCCGACGAUCGAUUGUUGCUUUUACGGGCGCCUGCAUUACUCAAGACUCACCGCUUAAGGCUGUGCAGAUGCUGUGGGUAAACCUCAUAAUGGAUACACUCGCUUCCCUGGCUCUGGCAACGGAACCACCCAACAGAGGAUUGAGCAUCA
B5: ENSG00000136451:be:win_4001|3pUTR|ENSG00000136451|bound_else_gene|NA|bound_elsewhere_windowed (ssRNA)
RNA: GGGAGUUCUACAGUCCGACGAUCGUCAUGUCUUCUUUUGGGAGGGAGAGAGUCGAUGGCAGGAGGGGGUUUUGGGUGGGCCACUGAAAAGGGGUACCGAAUAGGUUGUGUGAUGAAAUUCUGUGUCUUGGAACUGGAAUUGAGCAACAGAGGAUUGAGCAUCA
B6: chr12:111449306:111449407:+|3pUTR|ENSG00000111252|msi1|total|mutant (ssRNA)
RNA: GGGAGUUCUACAGUCCGACGAUCGCUGGCUUGGUGCCCUCCAAGCAUCUAAUGGCUUAUUAAAUUAUCCCACAAGUGGGUUUCCGGCUCCUUUUUUGAGCCAAAAUGGAAGCUGGGAAUCUGGUGCCAUAACUAAUGAGAAACCAACAGAGGAUUGAGCAUCA
B7: chrX:71240429:71240530:-|3pUTR|ENSG00000147130|msi1|FALSE|unique (ssRNA)
RNA: GGGAGUUCUACAGUCCGACGAUCGGCUUUGGGUUUCCUGACCCAUCCCGCAUAGGUAGAGCCUCUUGUUCCUAGGCAUGACCUAGGGAAAAACCCAGCUGCCUUCUCUGCCCUGUGCCCACUCCCUUCUCUACUCUUCCCCAGCAACAGAGGAUUGAGCAUCA
B8: chr10:78022286:78022401:-|CDS|ENSG00000148606|unk|total|mutant (ssRNA)
RNA: GGGAGUUCUACAGUCCGACGAUCAACACCGUAUCUCCAUUUCUGCCUUUCUUCGUUUCCACCGGAAAACUUGAAUCCCUCCGCCGUUCUGAAUUUAUUUAAACGAAUCCCAGCUGAAGAUGUUCCUCUACUUCUGAUGAACCCCAACAGAGGAUUGAGCAUCA
B9: chr3:128622278:128622381:-|CDS|ENSG00000163902|unk|total|mutant (ssRNA)
RNA: GGGAGUUCUACAGUCCGACGAUCAGCCAGGAUGAAGGCCGCCUGCAUCACAGAGCAGGUCUUGACCCUGGUCAACAAGAGAACCGGCCUUUACCGUCACUUUGACGAGACCGUCAACCGGUACAAGCAAUCCCGGGACAUCUCCAACAGAGGAUUGAGCAUCA
B10: chr19:17405403:17405546:-|CDS|ENSG00000130303|unk|total|mutant (ssRNA)
RNA: GGGAGUUCUACAGUCCGACGAUCUGACUAUUGCAGAGUGCCCAUGGAAGACGGGGAUAAGCGCUGUAAGCUUCUGCUGGGGACCGGAAUUCUGGUGCUCCUGAUCAUCGUGAUUCUGGGGGUGCCCUUGAUUAUCUUCACCAUCAACAGAGGAUUGAGCAUCA
B11: chr12:20680103:20680206:+|CDS|ENSG00000172572|unk|FALSE|unique (ssRNA)
RNA: GGGAGUUCUACAGUCCGACGAUCCUUACAGAACCACAAGAUGUGGAAGAAAGUCAUUGAAGAGGAGCAACGGUUGGCAGGCAUAGAAAAUCAAUCCCUGGACCAGACCCCUCAGUCGCACUCUUCAGAACAGAUCCAGGCUAUCAACAGAGGAUUGAGCAUCA
B12: chr4:127885990:127886091:+|CDS|ENSG00000142731|msi1|FALSE|unique (ssRNA)
RNA: GGGAGUUCUACAGUCCGACGAUCAUUACUUAUCGGGAGACCACCCUUCGACACUGACACAGUCAAGAACACAUUAAAUAAAGUAGUAUUGGCAGAUUAUGAAAUGCCAUCUUUUUUGUCAAUAGAGGCCAAGGACCUUAUUCACAACAGAGGAUUGAGCAUCA
B13: chr7:41967724:41967825:-|CDS|ENSG00000106571|msi1|total|mutant (ssRNA)
RNA: GGGAGUUCUACAGUCCGACGAUCCCCCAUCAGCAACUAUUCCAACAGUGGGCUCGAGCUUCCUCUGACCGAUGGAGGCCGUACCGGAGACCUCAGUGCCAUCGAUGAAACCCCAAUCAUGGACUCAACCAUUUCCACUGCAACCAACAGAGGAUUGAGCAUCA
B14: ENSG00000116991:stop:overlap|stop_codon|ENSG00000116991|stop_codon|NA|stop_codon (ssRNA)
RNA: GGGAGUUCUACAGUCCGACGAUCCGACAGCUCAGCUGCGGAAAUUCACAGAAUGGUUUUUCACCACCAUCGACAAAAAAUCUUAGCCAAUCCGCACCUCAUCAAGGGACCACUGGGAAAUGCCCCUUGUCCCUUUGAAGUCACCAACAGAGGAUUGAGCAUCA

Molecular target: MSI1 full-length (mouse, UniProt Q61474 1-362)
Assay: nsRBNS (natural sequence RNA bind-n-seq); RBNS binding buffer (assumed for nsRBNS): 25 mM Tris pH 7.5, 150 mM KCl, 3 mM MgCl2, 0.01% Triton X-100, 500 ug/ml BSA, 20 U/ml SUPERase-In, 4 C; UNK is unkempt and MSI1 is Musashi-1; names of the RNAs are library labels; protein concentration not given here; high values mean tight binding

Sequence of UniProt Q61474 (Q61474 whole entry): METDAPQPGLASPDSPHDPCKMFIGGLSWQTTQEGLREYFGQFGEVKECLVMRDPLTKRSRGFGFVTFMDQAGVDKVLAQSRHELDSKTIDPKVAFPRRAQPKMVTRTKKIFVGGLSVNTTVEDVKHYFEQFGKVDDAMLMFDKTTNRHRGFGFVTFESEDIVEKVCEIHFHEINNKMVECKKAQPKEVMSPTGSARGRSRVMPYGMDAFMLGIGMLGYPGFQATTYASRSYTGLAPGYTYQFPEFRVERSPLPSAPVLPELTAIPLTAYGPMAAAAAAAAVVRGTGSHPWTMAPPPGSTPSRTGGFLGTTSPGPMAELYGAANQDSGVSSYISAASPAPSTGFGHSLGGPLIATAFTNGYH

Row | Binder | binding signal [enrichment R]
1 | B1 | 0.895
2 | B2 | 0.295
3 | B3 | 0.837
4 | B4 | 0.354
5 | B5 | 0.709
6 | B6 | 0.374
7 | B7 | 0.654
8 | B8 | 0.507
9 | B9 | 0.233
10 | B10 | 0.551
11 | B11 | 0.531
12 | B12 | 6.34
13 | B13 | 0.513
14 | B14 | 0.474
